Among all 110,000 compounds or so, about 230 (0.21%) showed an effect of 50% or more. This is one part of the list.
target: DPAP1 (Plasmodium falciparum, UniProt Q8IIJ9); assay: primary screen, percent inhibition; read by cleavage of a fluorogenic dipeptide substrate; higher = more effect of the substance; set-up: species or system P. falciparum D10 trophozoite lysates; single well
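Also: 30 min substrate incubation versus DMSO and 10 µM JCP410 controls.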

Sequence of DPAP1 (Q8IIJ9 whole entry, looked up): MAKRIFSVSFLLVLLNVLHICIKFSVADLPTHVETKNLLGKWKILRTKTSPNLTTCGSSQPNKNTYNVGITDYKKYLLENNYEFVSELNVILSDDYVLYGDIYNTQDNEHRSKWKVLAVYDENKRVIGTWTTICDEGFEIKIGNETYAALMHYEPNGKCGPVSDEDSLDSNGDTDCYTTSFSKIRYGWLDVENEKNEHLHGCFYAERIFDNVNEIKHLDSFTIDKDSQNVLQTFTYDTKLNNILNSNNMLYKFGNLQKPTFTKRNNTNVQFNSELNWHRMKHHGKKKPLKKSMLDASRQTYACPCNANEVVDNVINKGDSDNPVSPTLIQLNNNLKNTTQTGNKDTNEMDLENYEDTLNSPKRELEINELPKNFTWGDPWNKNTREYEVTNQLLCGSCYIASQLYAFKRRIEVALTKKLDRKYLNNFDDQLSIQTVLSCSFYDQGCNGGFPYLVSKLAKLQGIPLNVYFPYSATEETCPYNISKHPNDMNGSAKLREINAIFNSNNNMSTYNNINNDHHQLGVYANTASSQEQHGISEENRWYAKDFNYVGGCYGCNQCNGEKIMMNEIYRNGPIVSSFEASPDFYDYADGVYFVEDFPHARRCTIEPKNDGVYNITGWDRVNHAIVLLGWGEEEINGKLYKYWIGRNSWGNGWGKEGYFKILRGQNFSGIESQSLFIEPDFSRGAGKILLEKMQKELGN

Point of comparison: `CC(=O)c1ccc(N2CCN(C(=O)c3ccc(Cl)c(Cl)c3)CC2)c(F)c1`, “% Inhibition @ 10 uM” value -0.279%. Against it:
- Brc1ccc(-n2nnnc2-c2nc3ccccc3[nH]2)cc1 — lower, -3.53%
- CC1CN(C(C)(C)C)CCC1(O)c1ccccc1 (stereo not drawn) — lower, -1.77%
- O=C(COc1ccc(Br)cc1)NC(Cc1ccccc1)C(=O)O (stereo not drawn) — lower, -8.12%
- C=CCOc1ccc(Cl)cc1C=C1C(=O)N(C)C(=O)N(C)C1=O — higher, 5.94%
- COc1ccc(CCNCc2c(C(=O)O)[nH]c3ccccc23)cc1OC — lower, -5.05%
- Nc1ccn(Cc2ccccc2)n1 — lower, -1.24%
- Fc1ccccc1COc1ccc(Br)cc1CNCC1CCCO1 (stereo not drawn) — lower, -3.45%
- C=CCc1cccc2cc(C(=O)N(CC)CC)c(=O)oc12 — higher, -0.268%
- CC(=O)N1C=CN(C(C)=O)C(c2cn(C)c3ccccc23)C1c1cn(C)c2ccccc12 (stereo not drawn) — higher, 7.8%
- CCN(CC)CCCNC(=O)CS(=O)(=O)Cc1nc(-c2cccc(OC)c2)oc1C — lower, -3.7%
- N#Cc1ccccc1CSc1nc2ccsc2c(=O)n1Cc1ccccn1 — lower, -1.5%
- Cc1ccc(S(=O)(=O)Nc2cccc(-c3csc(C)n3)c2)c(C)c1 — lower, -6.64%
- COc1cccc(C(=O)Nc2cccc(Cl)c2Cl)c1 — higher, 2.09%
- CCOC(=O)c1c(O)nc2c(c1O)CCCC2 — lower, -4.16%
- Cc1ccc(-c2nnc(NCc3ccccc3)c3ccccc23)cc1S(=O)(=O)NCc1cccnc1 — lower, -5.85%
- CCN(CC)CCCOc1cccc(C)c1 — lower, -4.08%
- CC(C)C1OCC2Cc3ccccc3C2O1 (stereo not drawn) — higher, 4.54%
- CC1(C)Cc2c(cnn2-c2ccc([N+](=O)[O-])cc2)-c2[nH]c3ccccc3c21 — higher, 18.6%
- O=C([C@@H](c1ccccc1)N1Cc2ccccc2C1=O)N1CCCC1 — lower, -4.1%
- O=C(O)CCC(=O)N1CCN(C(c2ccccc2)c2ccccc2)CC1 — lower, -0.95%
- CC(NC(=O)CSc1nc2ccccc2[nH]1)c1ccccc1 (stereo not drawn) — higher, 4.1%
- O=C(C1=C(O)C(=O)N(c2nc3ccccc3s2)C1c1ccccc1F)c1ccccc1 (stereo not drawn) — lower, -5.63%
- Cc1onc(-c2ccccc2)c1C(=O)Nc1ccc2c(c1)OCO2 — lower, -5.06%
- C=CCOc1ccc(Cl)cc1CNc1cccc(C(=O)O)c1 — lower, -3.43%
- O=C(NCCc1ccccn1)c1nc(Cn2cc(Br)cn2)no1 — higher, 2.77%
- Cc1nn(Cc2ccc(Cl)c(Cl)c2)c(C)c1NC(=O)c1noc2c1CCCC2 — lower, -3.12%
- O=C(O)c1c(CNC2CCCc3ccccc32)c2ccccc2n1Cc1ccccc1 (stereo not drawn) — higher, 1.93%
- COCCNC(=O)C1CCN(c2nnc(C)c3c(C)n(-c4ccccc4)nc23)CC1 — higher, 0.931%
- CC(C)CC(C(=O)NCC#N)c1cccc(-c2ccc(C(=O)N3CCN(CCO)CC3)cc2)c1 (stereo not drawn) — lower, -8.26%
- COc1ccc(/C=C/C(=O)NC(=O)c2ccccc2O)cc1OC — higher, 0.685%
- COc1cccc(C2C=C(c3ccc(F)cc3)Nc3ncnn32)c1OC(F)F (stereo not drawn) — lower, -3.37%
- COc1ccc(C(=O)C2=C(O)C(=O)N(Cc3cccnc3)C2c2cccc(Oc3ccccc3)c2)cc1 (stereo not drawn) — higher, 2.17%
- O=C(CNS(=O)(=O)c1cccc(Cl)c1)Nc1cccc(-c2nc3ccccc3s2)c1 — higher, 5.15%
- COc1ccc(-c2cc(C(=O)Nc3ccc(S(N)(=O)=O)cc3)c3ccccc3n2)c(OC)c1 — higher, 6.77%
- O=S(=O)(c1ccc2c(c1)OCCO2)N1CCC(c2nc3ccccc3s2)CC1 — higher, 0.635%
- COc1cccc(CN2CCN(S(=O)(=O)c3ccc(Cl)cc3)CC2)c1OC — higher, 1.81%
- COc1ccc(C2C(C(=O)Nc3cc(C)on3)c3ccccc3C(=O)N2C)cc1 (stereo not drawn) — higher, 1.16%
- Cc1ccc(CCSCC(=O)O)cn1 — lower, -5.38%
- O=C(NCCCc1ccccc1)C1CCN(c2nc3ccccc3n3cccc23)CC1 — higher, -0.205%
- COc1ccc(S(=O)(=O)N(C)C)cc1OC — lower, -1.96%
- CC(C)CC(C(=O)NCC#N)c1cccc(-c2cccc(OC3CCN(C(=O)OC(C)(C)C)CC3)c2)c1 (stereo not drawn) — higher, 0.079%
- CC(C)c1ccc(OCC(=O)N(Cc2cccc(F)c2)C2CCS(=O)(=O)C2)cc1 (stereo not drawn) — lower, -4.95%
- CC1CCCCC1NC(=O)CCS(=O)(=O)c1cccc2nonc12 (stereo not drawn) — lower, -1.2%
- CCN(CC)S(=O)(=O)c1cccc(-c2csc(C)n2)c1 — lower, -3.65%
- CCOC(=O)N1CCN(c2nnc(-c3ccc(C)cc3)c3ccccc23)CC1 — higher, 0.778%
- C=CCNC(=O)C(=O)Nc1ccc(Cl)cc1 — higher, 1.29%
- CC(=O)O/N=C1\Sc2ccccc2C1=O — lower, -2.49%
- CCO/C(O)=C1/C(C)=Nc2ncnn2C1c1ccc(C)o1 (stereo not drawn) — higher, 0.0842%
- N#CC1=C(N)OC2=C(C(=O)CC(c3ccccc3)C2)C1c1cccnc1 (stereo not drawn) — lower, -2.32%
- CC(=O)Nc1ccc(S(=O)(=O)Nc2ccc(C)c(C)c2)cc1 — lower, -4.72%
- COc1ccc(-c2noc(CN(C(=O)c3ccc(Br)o3)C3CCCCC3)n2)cc1 — higher, 0.486%
- CC1=CC2=NC(=O)/C(=C\c3cccn3CCOc3ccccc3C)C(=N)N2O1 — lower, -9.06%
- CCC(C)NC(=O)NCc1cccn1Cc1ccccc1 (stereo not drawn) — higher, 4.13%
- O=C1CC(c2ccc(C(F)(F)F)cc2)c2cc3c(cc2N1)OCCO3 (stereo not drawn) — higher, 2.17%
- O=C(O)C1C2CCC(O2)C1C(=O)N1CCN(c2ccccn2)CC1 (stereo not drawn) — higher, 1.37%
- Cc1c(C)n(C)c2ccc(C(=O)NC(C)CCc3ccccc3)cc12 (stereo not drawn) — higher, 0.747%
- CCOc1ccc(CCNC(=O)Cn2nc(C)n3c(cc4cc(C)ccc43)c2=O)cc1OCC — lower, -5.32%
- O=C(NCCNC(=O)c1ccccn1)c1ccccn1 — higher, 0.222%
- Nc1c(C(=O)O)sc2nc3c(cc12)CC(c1ccccc1)CC3 (stereo not drawn) — lower, -5.31%
- CCOC(=O)N1CCC(NC(=O)Cn2ncc3c(=O)oc4ccccc4c32)CC1 — higher, 3.81%
- O=C(CN1CCCC1=O)NC1(C(F)(F)F)N=C(c2ccccc2)NC1=O (stereo not drawn) — higher, 5.31%
- COc1cccc(/C=C2/S/C(=N\c3ccc(C)cc3)N(C)C2=O)c1 — lower, -4.24%
- O[C@H]1CC[C@H](NC2CCc3ccccc3C2)CC1 (stereo partly drawn) — lower, -3.82%
- O=C(Nc1cccc2cccnc12)c1ccc(Cl)c(Cl)c1 — lower, -2.65%
- CCC(CC)C(=O)Nc1ccc(OC)cc1 — lower, -3.25%
- COC(=O)c1nnn(-c2ccc(F)cc2)c1O — lower, -2.05%
- FC(F)(F)c1ccc(Oc2nc3ccccc3o2)cc1 — higher, 0.873%
- O=C(Cc1ccccc1)Nc1nn2c(-c3ccco3)nnc2s1 — higher, 1.68%
- CC(NC(=O)CCCc1nnc2n(C)c(=O)c3sccc3n12)C12CC3CC(CC(C3)C1)C2 (stereo not drawn) — lower, -1.59%
- CC1(C23CC4CC(CC(C4)C2)C3)NC(=O)CS1 (stereo not drawn) — higher, 1.66%
- COc1ccccc1/C=c1\sc2nc(-c3ccncc3)nn2c1=O — lower, -1.52%
- O=C(NCCSc1ccccc1)c1cncc(Br)c1 — higher, 0.503%
- CCCn1c(SCc2ccccc2Cl)nc2c1c(=O)[nH]c(=O)n2C — higher, 4%
- Cc1cc(Br)ccc1OCCCN1CCN(C)CC1 — lower, -7.46%
- COc1ccc(C(CC(=O)O)NC(=O)c2ccccc2)cc1 (stereo not drawn) — lower, -3.16%
- Cc1ccc(CNC(=O)c2cc(O)nc3ccc(S(=O)(=O)N4CCC(C)CC4)cc23)cc1 — lower, -0.519%
- O=C1CC(c2ccc(Cl)cc2Cl)c2ccc3ccccc3c2N1 (stereo not drawn) — lower, -2.35%
- O=[N+]([O-])c1ccc(S(=O)(=O)NCc2ccco2)cc1 — higher, 2.05%
- O=C1CC(c2ccccc2)CC(O)=C1/C=N/CCO (stereo not drawn) — higher, 1.58%
- COc1ccc(/C=N/n2c(C)nnc2C)cc1Br — higher, 9.21%
- Cc1[nH]c2ccccc2c1CN1CCOCC1 — higher, 4.55%
- CCOC(=O)c1ccc(NC(=O)c2ccc(N3C(=O)c4ccccc4C3=O)cc2)cc1 — higher, 1.96%
- CN1CCN(CCOc2ccccc2-c2ccccc2)CC1 — lower, -4.54%
- N#C/C(=C\Nc1ccc(C(N)=O)cc1)c1nc(-c2ccccc2)cs1 — lower, -5.07%
- CCOc1ccc2nc(SCC(=O)NCc3cccc(C(F)(F)F)c3)sc2c1 — higher, 2.03%
- [O-][n+]1onc2ccc(Cl)cc21 — lower, -1.6%
- O=C1N/C(=C/c2c[nH]c3ccccc23)C(=O)N1Cc1ccccc1F — higher, 33.2%
- COc1ccc(CC(=O)Nc2ccc(F)cc2)cc1 — lower, -1.86%
- CCOC(=O)C1=C(CS(=O)(=O)c2ccccc2)NC(=O)NC1c1ccc(O)cc1 (stereo not drawn) — lower, -2.16%
- Cc1nn(-c2ccccc2)c(-n2cccc2)c1C(=O)N1CCCCC1C (stereo not drawn) — higher, 0.137%
- CCOC(=O)N1CCN(C(=O)c2ccc(CSc3ccc(Cl)cc3)cc2)CC1 — lower, -2.87%
- Cc1ccc(N(CC(=O)Nc2ccc3c(c2)OCO3)S(C)(=O)=O)c(C)c1 — lower, -1.28%
- O=C(CN1C(=O)c2cccnc2C1=O)c1ccccc1 — higher, 1.63%
- COc1ccccc1CNC(=O)C(NS(=O)(=O)c1cccc2nsnc12)c1ccccc1 (stereo not drawn) — lower, -3.23%
- CC(C)C(c1ccc(N(C)C)cc1)c1ccc(N(C)C)cc1 — lower, -1.62%
- Cc1ccc(C)c(N(CC(=O)N2CCOCC2)S(C)(=O)=O)c1 — lower, -2.22%
- O=C(O)/C=C/C(=O)Nc1ccc(/C=C/c2ccccc2)cc1 — higher, 2.51%
- N#Cc1ccc(Oc2ccc(NC(=O)C3CCCCC3C(=O)O)cc2)cc1 (stereo not drawn) — lower, -3.39%
- BrC(=C\c1ccccc1)/C=N/n1cnnc1 — higher, 13.3%
- O=S(=O)(CC1CC1(Cl)Cl)CC1CC1(Cl)Cl (stereo not drawn) — lower, -2.04%
- Cc1ccc(S(=O)(=O)N2CCCCCC2)cc1C — higher, 1.26%
